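Interpolation was linear, between the two tested concentrations surrounding the appropriate level; five concentrations were tested over 48 hours in 96-well plates. GI50 marks 50% less growth. Definition used: TGI = concentration required for complete inhibition of growth.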
Test system: NCI-H322M lung
Assay: inhibition of tumour cell growth, NCI panel, 48 h

Structure (SMILES) | GI50 [nM] | TGI [µM]
N#Cc1nc(-c2ccccc2)oc1S(=O)(=O)N1CCN(CCc2ccccn2)CC1 | 23200 | 79.2
Nc1ccccc1NC(=O)c1ccc(NC(=O)C/C=C/c2cccnc2)cc1 | 2360 | > 50
COc1cc2nc(Cl)nc(Nc3cccc(C4=Nc5c(N)nc(N)nc5NC(c5ccc(F)cc5)C4)c3)c2cc1OC (stereo unspecified) | 2140 | 5.57

— PubChem BioAssay (NCI)
